# Values joined by “and” are separate entries in the source; they are usually repeats but may differ in a detail not shown here. Equal values may be shown once. About 50,000 (12%) of roughly 420,000 compounds were called active. Inconclusive results, whose numbers are uncertain, are shown with a selection of clear calls. Calls follow the shape of the dose curve; as a rule, active = well fitted inhibition curve with a large enough effect; inconclusive = small, poorly fitted or top-dose-only effect; inactive = flat fitted curve, though single readings scatter. Potencies of inconclusive entries are doubtful fits and often do not repeat.
# Assay: qHTS for Inhibitors of human tyrosyl-DNA phosphodiesterase 1 (TDP1): qHTS in cells in presence of CPT; also: nearly all actives have a fitted effect of over 55% in size
# Settings: chicken DT40 Tdp1-/-;hTDP1 cells + 20 nM CPT, ATP luminescence, 48 h; activity change, negative = growth inhibition: at 46.2 µM (top of the series) unless noted
# Summary of the method: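 Cell growth measured by CellTiter-Glo luminescence after a minimum 48 h, 37 C compound exposure with 20 nM CPT in Tdp1-knockout DT40 cells stably expressing hTDP1, seeded 400/well; qHTS titration format.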
# % is scaled to controls: 0 for no effect and ±100 for the full control effect; potency is read from the fitted curve at half-maximal effect; tags tell the direction and shape of the fitted curve.
SMILES,Potency,"activity change, negative = growth inhibition"
CCOC(=O)N1CCN(C(=O)C2CCN(Cc3nc(-c4ccccc4C)oc3C)CC2)CC1,"inconclusive: 11.6 µM [inhibitor, partial curve, poor fit]",
COc1cccc(N2C(=O)C3CCCN3C2c2cccs2)c1 (stereo not drawn),inactive,
COc1cc(SC)ccc1C(=O)N1CCN(S(=O)(=O)/C=C/c2ccccc2)CC1,"inconclusive: 13 µM [inhibitor, single point]",
CC1CCCC(C)N1C(=O)c1ccccc1Nc1ccc(SC(F)F)cc1 (stereo not drawn),active: 23.1 µM,
CN(C)c1ccc(CN(C)C2CCCCC2)cc1,inactive,
Cn1c(=O)c2nc(SCC(=O)Nc3ccc(OC(F)(F)F)cc3)n(C)c2n(C)c1=O,"inconclusive: 29.1 µM [inhibitor, single point]",
COc1ccc(CC(=O)Nc2c(C(=O)N3CCN(c4ccccc4)CC3)oc3ccccc23)cc1OC,"inconclusive: 29.1 µM [inhibitor, single point] and inconclusive: 23.1 µM [inhibitor, single point]",
Cc1nc(N2CCN(c3ccccc3F)CC2)[nH]c(=O)c1C,"inconclusive: 18.4 µM [inhibitor, single point]",
CC(/C=N/NC(=O)CSc1nc(C)cc(C)n1)=C\c1ccccc1,"inconclusive: 25.9 µM [inhibitor, single point]",
Cc1cccc2sc(NC(=O)C3CCN(C(=O)c4ccco4)CC3)nc12,"inconclusive: 8.2 µM [inhibitor, partial curve]",
COc1cccc(NC(=O)NC2(C(F)(F)F)Oc3ccccc3O2)c1,"inconclusive: 3.66 µM [inhibitor, partial curve, poor fit]",
COc1ccc(C(C(=O)NCc2ccccc2)N(Cc2cccs2)C(=O)c2cnccn2)cc1 (stereo not drawn),"inconclusive: 13 µM [inhibitor, partial curve]",
CCN(CC)S(=O)(=O)c1ccc(N2CC(C(=O)NCCc3ccc(Cl)cc3)CC2=O)cc1 (stereo not drawn),"inconclusive: 23.1 µM [inhibitor, single point]",
CC(=O)Nc1cc(-c2cccc(CO)c2)cn2c(-c3ccc(C(C)=O)cc3)cnc12,"inconclusive: 16.4 µM [inhibitor, single point]",
CC1CC(C)CN(S(=O)(=O)c2ccc(C(=O)NN3CCOCC3)cc2)C1 (stereo not drawn),inactive,
CCOC(=O)c1ccc(CSc2nnc(N)s2)cc1,,inconclusive: -32.4% [inhibitor]
COc1ccc(NC(=O)c2cc(C3CCCCN3C(=O)c3cc(C(C)(C)C)nn3C)on2)c(C)c1 (stereo not drawn),"inconclusive: 23.1 µM [inhibitor, partial curve, poor fit]",
Clc1nc(-c2ccccc2)cc(-c2ccccc2)n1,inactive,
Cc1ccc(C#N)c(SCc2nnc(-c3ccc(Cl)cc3)o2)n1,"inconclusive: 29.1 µM [inhibitor, single point]",
O=C1OCC2=C1C(c1cccc(Cl)c1)CC(=O)N2c1ccc(C(F)(F)F)cc1 (stereo not drawn),inactive,
CCOc1ccccc1NC(=O)C1CCN(S(=O)(=O)c2c(C)noc2/C=C/c2ccco2)CC1,"inconclusive: 23.1 µM [inhibitor, single point]",
Cc1c(C(=O)N/N=C/c2ccc(O)c(Br)c2)sc(N)c1C#N,"inconclusive: 18.4 µM [inhibitor, single point]",

SMILES,Potency,"activity change, negative = growth inhibition"
COc1ccc(-c2nc(CNC(=O)NC3CCCCC3)c(C)o2)cc1,"inconclusive: 14.6 µM [inhibitor, partial curve, poor fit]",
CCN(CC)c1ncnc2c1cnn2-c1cc(Cl)ccc1C,active: 20.6 µM,
COc1ccc(-c2csc(Nc3ncccc3C)n2)cc1OC,"inconclusive: 20.6 µM [inhibitor, single point]",
O=S(=O)(c1ccc(N2CCN(S(=O)(=O)c3ccccc3)CC2)nc1)N1CCCC1,inactive,
CC1CN(C(=O)/C=C/c2ccc([N+](=O)[O-])s2)CC(C)O1 (stereo not drawn),"inconclusive: 20.6 µM [inhibitor, single point]",
CC(=O)c1cccc(NC(=O)Cc2coc3cc4c(cc23)CCC4)c1,"inconclusive: 16.4 µM [inhibitor, partial curve]",
Cc1cc(C)cc(C(=O)Nc2cccc(NC(=O)c3ccco3)c2)c1,"inconclusive: 29.1 µM [inhibitor, single point]",
COc1ccc(OC)c(CNC(=O)c2ccc(N3Cc4ccccc4Oc4ncccc43)s2)c1,"inconclusive: 29.1 µM [inhibitor, single point]",
O=C(CCn1c(=O)c2ccccc2n(CC(=O)Nc2cccc(F)c2)c1=O)NCCc1ccccc1,inactive,
COc1cc(NC(=O)Cn2nc(C(F)(F)F)c3c2CCC3)cc(OC)c1OC,"inconclusive: 16.4 µM [inhibitor, single point]",
CCOc1ccccc1OCCC(=O)OCC(=O)Nc1c(C)cc(C)cc1C,inactive,
Cc1cccc(NS(=O)(=O)c2cc(Cl)ccc2Cl)n1,inactive,
CCN(CC)C(=O)c1ccc2c(=O)n(CCOC)c(=S)[nH]c2c1,,inconclusive: -31.5% [inhibitor]
O=C(Cn1cnc2c(nnn2Cc2ccccc2)c1=O)NCc1ccccc1Cl,inactive,
COc1ccc(C(CC(=O)N2CCCCC2)NC(=O)C(F)(F)F)cc1 (stereo not drawn),inactive,
COc1cc(OC)cc(-c2cc3nc(C)c(CCC(=O)NCCc4cccc(C)c4)c(C)n3n2)c1,active: 16.4 µM,
Cc1ccc(N(Cc2ccc(C(=O)Nc3c(C)n(C)n(-c4ccccc4)c3=O)cc2)S(C)(=O)=O)cc1C,"inconclusive: 18.4 µM [inhibitor, single point]",
COc1cc(/C=C2\C(=O)N(CCC#N)N=C2C)ccc1OCC(=O)Nc1ccccc1,"inconclusive: 29.1 µM [inhibitor, single point]",
CCCn1c(N)c(C(c2ccc(OC)cc2)N2CCN(c3ccccc3)CC2)c(=O)[nH]c1=O (stereo not drawn),inactive,
COc1ccccc1OCc1ccc(C(=O)Nc2ccncc2)o1,"inconclusive: 25.9 µM [inhibitor, single point]",
O=C(COC(=O)CNC(=O)c1ccc(F)cc1)NC1CCCc2ccccc21 (stereo not drawn),inactive,

# — PubChem BioAssay AID686979 (National Center for Advancing Translational Sciences (NCATS), 2013)
